About 110 (3.4%) of roughly 3,200 compounds showed an effect of 50% or more. Some of the results follow.
These compounds were tested on T1, V. cholerae SAD30. Conditions: relative growth, OD600, LB; 25 µM; inhibitor.
T1 construct: SAD30
Design: species or system S. aureus MSSA476 (TSB) or V. cholerae SAD30 (LB); 384-well bacterial growth screen at 25 uM, OD600 relative to DMSO control

| Compound | % of control remaining |
| --- | --- |
| C=CC(=O)NCc1cccc(N2C(=O)NC3(CCCC3)C2=O)c1 [2-M11, N-[(3-{2,4-dioxo-1,3-diazaspiro[4.4]nonan-3-yl}phenyl)methyl]prop-2-enamide] | 88.1887% |
| COc1cc([N+](=O)[O-])ccc1NC(=O)C(C)Cl (stereo not shown) [4-K12, 2-chloro-N-(2-methoxy-4-nitrophenyl)propanamide] | 93.5087% |
| C=CC(=O)NCc1ccc(-n2ccc(C3CC3)n2)cc1 [2-B03, N-{[4-(3-cyclopropyl-1H-pyrazol-1-yl)phenyl]methyl}prop-2-enamide] | 104.246% |
| C=CC(=O)N1CSCC1C(=O)NCC1CC1 (stereo not shown) [1-P17, N-(cyclopropylmethyl)-3-(prop-2-enoyl)-1,3-thiazolidine-4-carboxamide] | 100.299% |
| CC(Cl)C(=O)Nc1cc(C(F)(F)F)ccc1Cl (stereo not shown) [4-N15, 2-chloro-N-[2-chloro-5-(trifluoromethyl)phenyl]propanamide] | 99.8922% |
| CC(Cl)C(=O)N1CCCCC1c1nc(-c2ncccn2)no1 (stereo not shown) [7-D15, 2-chloro-1-{2-[3-(pyrimidin-2-yl)-1,2,4-oxadiazol-5-yl]piperidin-1-yl}propan-1-one] | 78.3744% |
| Cc1nn(C)c(C)c1C=C(C#N)C(=O)Nc1cccc(Cl)c1C [9-M20, N-(3-chloro-2-methylphenyl)-2-cyano-3-(1,3,5-trimethyl-1H-pyrazol-4-yl)prop-2-enamide] | 87.7634% |
| COc1ccc(C=C(C#N)C(=O)Nc2ccccc2[N+](=O)[O-])cc1 [8-G03, 2-cyano-3-(4-methoxyphenyl)-N-(2-nitrophenyl)prop-2-enamide] | 85.9959% |
| C=CC(=O)Nc1ncccn1 [1-M12, N-(pyrimidin-2-yl)prop-2-enamide] | 88.4903% |
| O=C(CCl)Nc1cc(S(=O)(=O)N2CCCC2)ccc1Cl [6-G14, 2-chloro-N-[2-chloro-5-(pyrrolidine-1-sulfonyl)phenyl]acetamide] | 86.757% |
| C=CC(=O)NCc1ccnn1C1CCCC1 [3-H21, N-[(1-cyclopentyl-1H-pyrazol-5-yl)methyl]prop-2-enamide] | 94.7363% |
| C=CC(=O)N1CCCCC1 [1-C12, 1-(piperidin-1-yl)prop-2-en-1-one] | 86.3976% |
| C=CC(=O)Nc1cnn(CC(F)(F)F)c1 [1-A11, N-[1-(2,2,2-trifluoroethyl)-1H-pyrazol-4-yl]prop-2-enamide] | 94.0209% |

Reference: paper PMC11995724, “Antibiotic target discovery by integrated phenotypic and activity-based profiling of electrophilic fragments” (Cell chemical biology, 2025)
